These results are taken from US20220363740A1 (Sanofi, published 2022).

For assay [1], the target named is T1, Human TGFβ1 (human, UniProt P01137 partial chain).
T1 construct: also called Transforming Growth Factor-β1
The assay can be described thus: SPR (Biacore), apparent KD, 24 RU TGFβ1 immobilized on the chip.

For assay [2], the target named is T1, Human TGFβ1. Nature of the assay: SPR (Biacore), apparent KD, 105 RU TGFβ1 immobilized on the chip.
Assay [3] concerns the target T1, Human TGFβ1. Nature of the assay: SPR (Biacore), apparent KD, 544 RU TGFβ1 immobilized on the chip. In general terms: In SPR one partner is held on a chip, and binding of the other changes the refractive index at the surface.

T1 sequence (P01137 279-390 limits assumed): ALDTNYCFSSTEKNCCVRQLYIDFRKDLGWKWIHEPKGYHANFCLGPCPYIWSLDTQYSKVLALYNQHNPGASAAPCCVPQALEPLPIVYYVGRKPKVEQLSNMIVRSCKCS

B1: CAT191(scFv-Fc) (Fc fusion)
chain: EVQLVESGGGVVQPGRSLRLSCAASGFTFSSYGMHWVRQAPGKELEWVAVISYDGSIKYYADSVKGRFTISRDNSKNTLYLQMNSLRAEDTAVYYCARTGEYSGYDTDPQYSWGQGTTVTVSSSGGGSGGGGSGGGGSEIVLTQSPSSLSASVGDRVTITCRSSQGIGDDLGWYQQKPGKAPILLIYGTSTLQSGVPSRFSGSGSGTDFTLTINSLQPEDFATYYCLQDSNYPLTFGGGTRLEIKGGS[… human IgG1 Fc …]
notes: Dimer of two identical monomers: VH-linker-VL-GGSG-human IgG1 hinge-human IgG1 Fc; also called scFv-Fc dimer
On to B1, for which the figures for the Kd with Human TGFβ1 [1], with Human TGFβ1 [2] and in the assay with Human TGFβ1 [3] were 0.5 nM, 0.2 nM and 0.09 nM, respectively.
